{"source": "PubChem BioAssay AID686971", "about": "(National Center for Advancing Translational Sciences (NCATS), 2013)", "note": "Screen size: about 360,000 compounds; about 7,500 (2.1%) were called active. This list was built around the results that the source calls inconclusive (neither active nor inactive); the mix of calls is not that of the screen. Calls come from the whole dose curve; as a rule, active = well fitted cell-killing curve with a large enough effect; inconclusive = small, poorly fitted or top-dose-only effect, or effect the other way, or another doubt; inactive = no such curve, though single readings can be large or run the other way. No potency is given beside an inconclusive call; the fits are too rough. Where a structure was tested more than once in an assay, its records may differ in their call. Potency is the fitted concentration of half-maximal effect; tags give direction and shape of the fitted curve.", "data": [{"test": "qHTS for induction of synthetic lethality in tumor cells producing 2HG: qHTS for the HT-1080-IDH1KD cell line;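 for activity, negative = toxicity: 0% = DMSO wells and -100% = cell-free medium wells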", "conditions": "HT-1080 IDH1 knockdown viability, ATP luminescence, 48 h; activity, negative = toxicity: at 46.1 µM (top of the series) unless noted", "method_in_brief": "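HT-1080-IDH1KD cells (IDH1 knocked down), 750/well in RPMI with 5% FBS, treated with compound 48 h at 37 degrees C. Viability by CellTiter-Glo luminescence, normalised to DMSO and no-cell wells; concentration-response curves classed.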", "values": [{"smiles": "CC(=O)Nc1cc2c3ccccc3n(C)c2cc1[N+](=O)[O-]", "activity, negative = toxicity": "inactive: -9.83%"}, {"smiles": "CC12CCC(=O)C=C1CCC1C2C(O)CC2(C)C1CCC2(O)C(=O)COC(=O)COCC(=O)O", "note": "(centres undefined)", "Potency": "inconclusive [rising, full curve]"}, {"smiles": "CC1CC(C)CN(C(=O)CCc2ccccc2)C1", "note": "(centres undefined)", "activity, negative = toxicity": "inactive: 10.7%"}, {"smiles": "O=C(N/N=C/c1ccc2c(c1)OCO2)c1ccc(NS(=O)(=O)c2cccs2)cc1", "Potency": "inconclusive [cytotoxic, partial curve]"}, {"smiles": "Nc1nc(-c2ccccc2)cn1/N=C/c1ccccc1", "Potency": "inconclusive [cytotoxic, single point]"}, {"smiles": "CCCC[n+]1c2ccccc2cc2ccccc21", "Potency": "inconclusive [cytotoxic, single point]"}, {"smiles": "COc1cc(OC)c(OC)cc1/C=N/NC(=S)NCC1CCCO1", "note": "(centres undefined)", "Potency": "inconclusive [cytotoxic, single point]"}, {"smiles": "O=C(COC(=O)CCNS(=O)(=O)c1ccccc1)Nc1ccc(OC(F)F)cc1", "activity, negative = toxicity": "inactive: -0.317%"}, {"smiles": "CCCCNC(=O)C1(C)CCCCCN1Cc1cccc2c(OC)cc(C(=O)OCC)cc12", "note": "(centres undefined)", "Potency": "inconclusive [cytotoxic, single point]"}, {"smiles": "CC(=O)Nc1ccc(-c2ccnc3c2CC(C)(C(=O)Nc2ccc(C(C)C)cc2)O3)cc1", "note": "(centres undefined)", "Potency": "inconclusive [cytotoxic, single point]"}, {"smiles": "CC(C)(C)c1ccc(NC(=O)CSc2nnc(-c3n[nH]c4ccccc34)o2)cc1", "Potency": "inconclusive [cytotoxic, single point]"}, {"smiles": "Cc1ccc(S(=O)(=O)N(Cc2ccccc2)c2ccccc2C(=O)N2CCCCC2)cc1", "Potency": "inconclusive [cytotoxic, single point]"}, {"smiles": "COc1ccccc1C(=O)Nc1cccc2cccnc12", "activity, negative = toxicity": "inactive: -13.1%"}, {"smiles": "COc1cccc(C(=O)Nc2ccc3c(c2)OC[C@H](C)N(CCc2ccccc2)C[C@@H](C)[C@@H](OC)CN(C)C3=O)c1", "Potency": "inconclusive [cytotoxic, single point]"}, {"smiles": "CCOc1ccccc1CN1CCN(Cc2cc3ccccc3[nH]2)CC1CCO", "note": "(centres undefined)", "Potency": "inconclusive [cytotoxic, partial curve]"}, {"smiles": "CC(=O)Nc1ccc(S(=O)(=O)N2CCC(N3CCCC3)CC2)cc1", "activity, negative = toxicity": "inactive: 13.7%"}, {"smiles": "OC(COC(c1ccc(Cl)cc1)c1ccc(Cl)cc1)CN1CCc2ccccc2C1", "note": "(centres undefined)", "Potency": "inconclusive [cytotoxic, single point]"}, {"smiles": "CCc1nc2ccc(C(=O)N3CCN(C)CC3)cn2c1N(C)CCC(C)C", "activity, negative = toxicity": "inactive: 14.9%"}, {"smiles": "CC(C)OC(=O)CSc1nnc(-c2ccccc2)n1N", "activity, negative = toxicity": "inactive: 1.68%"}, {"smiles": "COc1cc([N+](=O)[O-])cc(/C=N/NC(=O)CSc2ccccn2)c1O", "Potency": "inconclusive [cytotoxic, single point]"}, {"smiles": "O=C(/C=C/c1cccc(F)c1)c1ccc(N2CCOCC2)cc1", "Potency": "inconclusive [cytotoxic, single point]"}, {"smiles": "COc1ccc(NC(=O)CN(C)C(=O)c2cn(-c3ccccc3)nc2-c2ccc(Cl)cc2)cc1", "Potency": "inconclusive [cytotoxic, partial curve]"}, {"smiles": "Cc1ccc(C(=O)Nc2ccc(C)c(S(=O)(=O)Nc3ccccc3Cl)c2)s1", "Potency": "inconclusive [cytotoxic, single point]"}, {"smiles": "CN(CC(=O)Nc1cc(S(=O)(=O)N2CCCC2)ccc1Cl)Cc1cccs1", "activity, negative = toxicity": "inactive: -3.86%"}, {"smiles": "CC(C)[Si]1(C(C)C)OCC2OC(n3cnc4c(N)ncnc43)C(N)C2O[Si](C(C)C)(C(C)C)O1", "note": "(centres undefined)", "Potency": "inconclusive [cytotoxic, single point]"}, {"smiles": "COc1ccc(-c2noc(-c3ccccc3Cl)n2)cc1OC", "activity, negative = toxicity": "inactive: 6.36%"}, {"smiles": "CCn1cc2nc(SCC(=O)Nc3ccc(OC)cc3OC)n(Cc3ccc(OC)cc3)c(=O)c2n1", "Potency": "active: 5.17 µM"}, {"smiles": "CC(=O)N1CCCc2ccc(NS(=O)(=O)c3ccc(C)cc3)cc21", "activity, negative = toxicity": "inactive: -17.2%"}, {"smiles": "CCN(CC(N)=O)S(=O)(=O)c1ccc(Br)cc1", "activity, negative = toxicity": "inactive: -7.4%"}, {"smiles": "O=Nc1c2cc(-c3ccccc3)[nH]nc-2c2ccccc12", "Potency": "inconclusive [cytotoxic, full curve, poor fit]"}, {"smiles": "CC(C)(C)OC(=O)N1CCC(CC2CC(c3ccc(Cl)cc3)=NO2)(C(=O)NCC2CCCCC2)CC1", "note": "(centres undefined)", "Potency": "inconclusive [cytotoxic, single point]"}, {"smiles": "CCO[C@H]1OC(C(=O)N2CCN(Cc3ccc4c(c3)OCO4)CC2)=C[C@@H](C2CCCCC2)[C@@H]1CCCO", "activity, negative = toxicity": "inactive: -13.9%"}, {"smiles": "COc1ccc(C(=O)C[n+]2cccc3cc(OC)ccc32)cc1", "activity, negative = toxicity": "inactive: -9%"}, {"smiles": "O=C(N/N=C/c1ccc2cccc(OCc3ccccc3)c2n1)c1ccc(Cl)cc1", "Potency": "inconclusive [cytotoxic, single point]"}, {"smiles": "CC(C)c1ccc2c(c1)CC[C@H]1[C@](C)(CN)CCC[C@]21C", "Potency": "active: 20.6 µM"}, {"smiles": "O=C(CCC(=O)c1ccc(F)cc1)Nc1cc(Cl)cc(Cl)c1", "activity, negative = toxicity": "inactive: 6.62%"}, {"smiles": "Cc1cc(/C=C2\\SC(=S)NC2=O)c(C)n1-c1ccc(O)cc1", "Potency": "inconclusive [cytotoxic, single point]"}, {"smiles": "O=C(COc1ccccc1[N+](=O)[O-])Nc1cccc(Cl)c1N1CCOCC1", "Potency": "inconclusive [cytotoxic, single point]"}, {"smiles": "O=C(O)CSc1nnc(COc2ccc(Br)cc2)n1-c1ccccc1", "activity, negative = toxicity": "inactive: -2.63%"}, {"smiles": "Cc1ccccc1Oc1ncnc2oc(-c3ccccc3)cc12", "activity, negative = toxicity": "inactive: 0%"}, {"smiles": "COc1ccc(-c2nnc(SCC#N)o2)cc1", "Potency": "inconclusive [rising, single point]"}, {"smiles": "COc1ccc(OCCC(=O)c2ccc(OC)cc2)cc1", "Potency": "active: 20.6 µM"}, {"smiles": "Cc1c(C(=O)N2CCc3ccccc3C2)oc2ccc(S(=O)(=O)N3CCCCCC3)cc12", "activity, negative = toxicity": "inactive: -4.99%"}, {"smiles": "N#CC1(c2ccccc2)CCCN1C(=O)c1ccc(Br)cc1", "note": "(centres undefined)", "activity, negative = toxicity": "inactive: -15.2%"}, {"smiles": "CCOCCCNC(=O)c1cc2cc3cc(OC)ccc3nc2o1", "activity, negative = toxicity": "inactive: -0.372%"}, {"smiles": "COc1ccc(Cl)c(-c2cc(C(=O)Nc3ccccc3)[nH]n2)c1", "activity, negative = toxicity": "inactive: -19.6%"}, {"smiles": "CC(C)C[C@@H](CN1CCC[C@H]1CN1C(=O)C(=O)NC[C@@H]1Cc1ccccc1)N1C[C@H](Cc2ccc(O)cc2)N(CC2CCCCC2)C(=O)C1=O", "Potency": "inconclusive [cytotoxic, single point]"}, {"smiles": "O=C(Cn1ncc2c(=O)oc3ccccc3c21)N1CCN(c2ccccn2)CC1", "Potency": "inconclusive [cytotoxic, single point]"}, {"smiles": "CN1C(=S)SC2CS(=O)(=O)CC21C", "note": "(centres undefined)", "Potency": "inconclusive [rising, partial curve]"}, {"smiles": "CCCS(=O)c1nc(C)cc(C)c1S(C)(=O)=O", "note": "(centres undefined)", "activity, negative = toxicity": "inactive: 15.8%"}, {"smiles": "O=C(NC1CCCCCC1)c1[nH]c(C(F)(F)F)nc1-c1ccccc1", "Potency": "inconclusive [cytotoxic, single point]"}, {"smiles": "O=C(Nc1cc(Cl)c(Cl)cc1Cl)c1cccnc1", "activity, negative = toxicity": "inactive: 5.79%"}, {"smiles": "O=[N+]([O-])c1cc(Cl)cc(/C=N/Nc2nc3ccccc3s2)c1O", "Potency": "active: 18.4 µM"}, {"smiles": "CCOC(=O)c1c(NC(=O)COC(=O)CCCOc2ccc(OC)cc2)sc(C(=O)N(C)C)c1C", "activity, negative = toxicity": "inactive: -4.67%"}, {"smiles": "CCN(C(=O)COC(=O)c1cc(-c2cccc3ccccc23)nc2ccccc12)C1CCS(=O)(=O)C1", "note": "(centres undefined)", "activity, negative = toxicity": "inactive: -10.1%"}, {"smiles": "Nc1cccc(Oc2c(F)c(F)c(Oc3cccc(N)c3)c(F)c2F)c1", "Potency": "inconclusive [cytotoxic, single point]"}, {"smiles": "Cc1ccc(Nc2nc(-c3ccc(S(=O)(=O)N4CCOCC4)cc3)cs2)cc1Cl", "Potency": "active: 16.4 µM"}, {"smiles": "COc1ccc(N2CCN(C(=O)c3[nH]c(C(F)(F)F)nc3-c3ccccc3)CC2)cc1", "Potency": "inconclusive [cytotoxic, single point]"}, {"smiles": "OC[C@H]1O[C@@H](c2nc3ccc(-c4nc(-c5ccc(Br)cc5)no4)cc3[nH]2)C[C@@H]1O", "Potency": "active: 18.4 µM"}, {"smiles": "CC(=O)c1cc(C#N)c(SCc2ccc(F)cc2)nc1C", "activity, negative = toxicity": "inactive: 1.17%"}, {"smiles": "CS(=O)(=O)Cc1ccc(C(=O)N2CCN(C(=O)c3cccs3)CC2)cc1", "activity, negative = toxicity": "inactive: 6.57%"}, {"smiles": "C/C(=N\\NC(=O)OC(C)(C)C)c1cccc([N+](=O)[O-])c1", "activity, negative = toxicity": "inactive: 2.51%"}, {"smiles": "Cc1cc(C)c(C)c(S(=O)(=O)NC2CCN(Cc3ccccc3)CC2)c1C", "Potency": "active: 16.4 µM"}, {"smiles": "O=C1CC(=Nc2ccccc2)NN1c1ccccc1", "Potency": "inconclusive [cytotoxic, single point]"}, {"smiles": "Cc1ccc(S(=O)(=O)NC(=O)Nc2ccc(N(C)C)cc2)cc1", "Potency": "inconclusive [cytotoxic, partial curve]"}, {"smiles": "O=c1c2ccccc2nc(/C=C/c2ccc([N+](=O)[O-])o2)n1CCCO", "Potency": "active: 2.91 µM"}, {"smiles": "COc1ccc(C(=O)c2ccc(Cl)c([N+](=O)[O-])c2)cc1", "Potency": "active: 5.8 µM"}, {"smiles": "CCOC(=O)C1CCCN(C(c2ccccn2)c2c(C)[nH]c3ccccc23)C1", "note": "(centres undefined)", "activity, negative = toxicity": "inactive: 15.7%"}, {"smiles": "CC(=O)N(C(C)=O)C1=C(C#N)C2(CCCCC2)Cc2ccccc21", "Potency": "inconclusive [cytotoxic, single point]"}, {"smiles": "COc1ccc(O)c(/C=N/Nc2nc(C)cc(-c3ccccc3)n2)c1", "Potency": "inconclusive [cytotoxic, partial curve]"}, {"smiles": "COc1cc(C2c3cc4c(cc3OC(NNC(N)=O)C2C)OCO4)cc(OC)c1OC", "note": "(centres undefined)", "Potency": "inconclusive [cytotoxic, full curve]"}, {"smiles": "Cc1nc(C(=O)NNC(=O)c2c(-c3c(Cl)cccc3Cl)noc2C)cs1", "Potency": "inconclusive [cytotoxic, full curve]"}, {"smiles": "OC[C@@H]1CN(Cc2cccc3ccccc23)C[C@H](n2cnc3c(NCc4ccco4)ncnc32)O1", "Potency": "inconclusive [cytotoxic, partial curve]"}, {"smiles": "CCc1ccc2nc(N=C(N)N)nc(C)c2c1", "Potency": "inconclusive [cytotoxic, partial curve]"}]}]}
